For four compounds, cell count results are on record in the supplement of paper PMC4604168 (melanoma cell lines).

Molecules are shown by their SMILES. The list shows a part of the results. Most values come without repeats; read them as rough.
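Further: cell number obtained by counting DAPI-stained nuclei in high-throughput microscope images with image analysis software, screen run in 1,536-well plates.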

For this assay, the system named is UACC62. The assay can be described thus: cell count relative to DMSO control; melanoma cells; higher = more viable cells. As to conditions: library dose: low library concentration; 72 h.
As to `O=C(Nc1cc(C(F)(F)F)cc(C(F)(F)F)c1)c1cc(Cl)ccc1O` + NC1(c2ccc(-c3nc4ccn5c(=O)[nH]nc5c4cc3-c3ccccc3)cc2)CCC1 [MK2206] (first compound 0.016 µM, partner dose 0.4 µM), the cell count was determined as 82.7%.
As for `O=C(Nc1cc(C(F)(F)F)cc(C(F)(F)F)c1)c1cc(Cl)ccc1O` + O=c1[nH]nc(Sc2ncc([N+](=O)[O-])s2)n1-c1ccc2c(c1)OCCO2 [BI78D3] (first compound 0.016 µM, partner dose 0.2 µM), the cell count stood at 108%.
With `O=C(O)[C@@H]1[O][Sb](=[O])([O][Sb]2(=[O])[O][C@H]([C@H](O)CO)[C@H](O)[C@H](C(=O)O)[O]2)[O][C@H]([C@H](O)CO)[C@@H]1O` (some centres undefined) [stibogluconate] + Nc1cccc2c1CN(C1CCC(=O)NC1=O)C2=O [lenalidomide] (first compound 2 µM, partner dose 1 µM) the figure was 96.2%.
On to `Cn1nnc2c(C(N)=O)ncn2c1=O` [temozolomide] + CN(NC(=O)CC(=O)NN(C)C(=S)c1ccccc1)C(=S)c1ccccc1 [STA4783] (first compound 2 µM, partner dose 0.006 µM), for which the cell count was determined as 82.9%.
